{
  "source": "paper PMC12136788",
  "binders": {"B1": {"name": "chr7:45139798:45139799:-_ENSG00000136270_ENST00000258770|hu_hu|FALSE|FALSE (ssRNA)", "RNA": "GGGAGUUCUACAGUCCGACGAUCCAACACCAAAAUUAAAGGUUUAUUAUACACAAGAGGACGUUCUGUCCCUCAGAGUGGCUGGCCACCCUCCCCACUCUGGCCAAGGUCCUGCACAGAGGUUUGUCCUCAAGGGUGACCCUUCAACAGAGGAUUGAGCAUCA"}, "B2": {"name": "75562132_75563920_2274_CDS_ENSG00000119638_ENST00000238616|human|control|control (ssRNA)", "RNA": "GGGAGUUCUACAGUCCGACGAUCCUCAACGAUGAGAAUGGUAUGCCAUCCACGGCAAGACAGGUCCGGGACAUGAUGCAGAGAUCCAAAAAUAGGCCGAGGCCAUGAGGUACAGAUAUCAGAGCCAUGUGGUCUCUCUGUGGGCAACAGAGGAUUGAGCAUCA"}, "B3": {"name": "chr1:46159212:46159213:+_ENSG00000159596_ENST00000372025|hu_mus|hu_hu_hu_mus_True|1_58 (ssRNA)", "RNA": "GGGAGUUCUACAGUCCGACGAUCUCUGAUCCCUCCCAAGAAAGCUAGGAAACCGGCUCCAUAAGCCAUCUGAGUGAAAGCUAAUAUGGGGAUAUAAGACUUUGUUAUUACCAUGAGAAGUGGGGGAGCAGUAAAGGGGAUUAGCAACAGAGGAUUGAGCAUCA"}, "B4": {"name": "chr15:52101961:52101962:+_ENSG00000128872_ENST00000249700|hu_mus|FALSE|FALSE (ssRNA)", "RNA": "GGGAGUUCUACAGUCCGACGAUCGAGUUAUUCAACCUCCAAAGGGAUUGUGACCCACAGGUUGAGAACCACUGACUUAGCGACAUAGAGAGAAGGGAAACAAGAAGGAUGCUUUGUCAUGAAAGGAGAGGAAAAGGAAGGACACAACAGAGGAUUGAGCAUCA"}, "B5": {"name": "chr1:95363388:95363389:-_ENSG00000117519_ENST00000538964|hu_mus|FALSE|FALSE (ssRNA)", "RNA": "GGGAGUUCUACAGUCCGACGAUCCCGAGGGUAGUCGUCUGGGUACUCGCCAUGAUAUUCAUCGGGGUAUUCUGCCUGAUAAUCGCUAUCACUGAUUUCCGACCCAUUGGUGCCCGUGCCCUGGCUUCCGUUGUGAAUGACAGGCAACAGAGGAUUGAGCAUCA"}, "B6": {"name": "chr9:115598534:115598535:+_ENSG00000148158_ENST00000374232|hu_hu|FALSE|FALSE (ssRNA)", "RNA": "GGGAGUUCUACAGUCCGACGAUCCAGCUUGUAGCCGCCAGUGACGUGCUUGACUGACUCGCCCAUUCUGGUCAGCAAUGCUAUCCCUUGCUUCUUGUAGGCGUUCAGGUCCUUAGCAGUAAGGAAAAUAUUAAAGUGUUCAUUCAACAGAGGAUUGAGCAUCA"}, "B7": {"name": "chr7:75932113:75932114:+_ENSG00000106211_ENST00000248553|hu_hu|hu_hu_hu_mus_False|18_38 (ssRNA)", "RNA": "GGGAGUUCUACAGUCCGACGAUCCUGCGACCACUCAUCGGGCAACCGGGGCACCCCGAAAGCUUGAUCGAAGAGGCGGCUGUGUGCAGGGUACCAGCGGAAGGGGUGUUCCCAGCUGCCCCGCAGGAGCAGCGAGAAGGGCACCAACAGAGGAUUGAGCAUCA"}, "B8": {"name": "chr2:202488911:202488912:-_ENSG00000155755_ENST00000286196|hu_mus|hu_hu_hu_mus_False|98_108 (ssRNA)", "RNA": "GGGAGUUCUACAGUCCGACGAUCAUUUAACAUUUUUCAUAAUAUUGCAGUAGCAUUUCAGCAUUAUGUAACAAAAGCUCAAUUGUAAAUACAUGUAUCUUAUAAAAAUACACUUAAAAACACGAGUGGGGAGCGCAGGCGCCACAACAGAGGAUUGAGCAUCA"}, "B9": {"name": "chr4:86222814:86222815:+_ENSMUSG00000070934_ENSMUST00000091064|mus_mus|motif|central (ssRNA)", "RNA": "GGGAGUUCUACAGUCCGACGAUCGAAUAUUAAAGACAAAUGAUGCAAAAAAAAAAAAAACACCGUAAUUCAGCAUUUUACGGAAGAGCAUUUGGCAUUAUUUCAACGCAUGAGGAGGCUGUGCUUGGGCCCAUCUACUCUUUCCAACAGAGGAUUGAGCAUCA"}, "B10": {"name": "119848481_119848852_3695_CDS_ENSMUSG00000033902_ENSMUST00000066058|mouse|control|control (ssRNA)", "RNA": "GGGAGUUCUACAGUCCGACGAUCGCCUUUCAGCUGCUCACCAGACACCUGUGAUACCUGGUCAGGUCUGGACGUCAGGGCCAAGCCUGAGGAGGAUAGGGAUGGUUCCCUGAGUGGGGAGGUCUGCACUUGCAGAAGGAAUCGCAACAGAGGAUUGAGCAUCA"}, "B11": {"name": "173384412_173384532_3865_3pUTR_ENSG00000113742_ENST00000334035|human|control|control (ssRNA)", "RNA": "GGGAGUUCUACAGUCCGACGAUCCAAAGCUAGAAUUUUAUUUAUAAUAAAGCAUGCAUUACUUGAUGAAGUUGGCACUUCAAACACUGACUAUGUCCCAUGCUAAAUUCGGAAACUGUAAUGUUAUUUUAGUUUAUAGGAAGACAACAGAGGAUUGAGCAUCA"}, "B12": {"name": "chr18:56819859:56819860:+_ENSG00000166562_ENST00000588875|hu_mus|hu_hu_hu_mus_True|68_68 (ssRNA)", "RNA": "GGGAGUUCUACAGUCCGACGAUCAACCUUGAUUACUCUGUGAACUAUCGGAAUGUCUCUUCCUUCAACUUUAAAAACAACUAUUUCACCAGCUCUGAUGGGGUCCUCCCGGAAAUUCGUGAGGAACAGCAGAUCUCCUCUGUGCAACAGAGGAUUGAGCAUCA"}, "B13": {"name": "chr2:42509997:42509998:+_ENSG00000143924_ENST00000318522|hu_mus|hu_hu_hu_mus_True|58_88 (ssRNA)", "RNA": "GGGAGUUCUACAGUCCGACGAUCUCGCUGAGUCCUCUCCUCAUAAUUAAAUAGUACUACCACUGAGGCGAUAAAAUAAACUAUUUUCCCUGUGGGAAGCAGGUAUACAUUCGCUCUACAGUCCUUUCCUCGAUAACCGUAUACCAACAGAGGAUUGAGCAUCA"}, "B14": {"name": "chr10:99542671:99542672:+_ENSMUSG00000019966_ENSMUST00000105283|mus_mus|FALSE|FALSE (ssRNA)", "RNA": "GGGAGUUCUACAGUCCGACGAUCACUAGUGUCAGAUGCCACCAUAAAGUCCUUAAAGGCAUCAAUGGAUCUAUUGAAAAUACUAAAGAAUUCUUCAGGAGUAAAGGAUCUAGUUUCUGGCCUCUUCGGAGAUUCUUUUAUAUUCAACAGAGGAUUGAGCAUCA"}, "B15": {"name": "113158224_113159022_837_CDS_ENSMUSG00000010936_ENSMUST00000034190|mouse|control|control (ssRNA)", "RNA": "GGGAGUUCUACAGUCCGACGAUCUGGCAGGUAAUCCAGCAGGUUAAUGUCUGGCACCGACACCAGAACCAGGAUCCAGGAGAUGAUGAACUGUCGGGCGUAUUGGUUGUUGGAGUAAAUCCUCUCCCGCAAAAGGGGGAUGAACAACAGAGGAUUGAGCAUCA"}, "B16": {"name": "chr1:135197953:135197954:+_ENSMUSG00000041757_ENSMUST00000038295|mus_hu|FALSE|FALSE (ssRNA)", "RNA": "GGGAGUUCUACAGUCCGACGAUCGAGCCAAUCCCACCUGCCAGUCUGCAGGGGAGAAAGGGCAGGUUUGGGGUGCUUGAACUGUGAAGAUGGGAAAUACAGCCAAGGGUCACGUUUAAAAAACCUGCUAGAAGUGAAGAUCGGCAACAGAGGAUUGAGCAUCA"}, "B17": {"name": "102186782_102191557_1493_CDS_ENSMUSG00000021182_ENSMUST00000068411|mouse|control|control (ssRNA)", "RNA": "GGGAGUUCUACAGUCCGACGAUCCUUCAGGAUGCGGCUGGAGGCGCACUCAUUCAGCUCAAAGACGAAGGAUUUCCUGGAGGCGUCGGACAAGUCUGCGUUCUUGGACAGCUGCUCCAGUUCCCAGCCAAGGUGGGCCGACUCCAACAGAGGAUUGAGCAUCA"}, "B18": {"name": "chr2:47387770:47387771:-_ENSG00000143933_ENST00000272298|hu_mus|hu_hu_hu_mus_True|8_28 (ssRNA)", "RNA": "GGGAGUUCUACAGUCCGACGAUCAAGGUUUAAGGACAAUGACAGUAAGAUAAGGGAAGAAAACAUGGAGGAAUGAAGUCCUAAUUACUAUACAUGCAUAUUUUUUGGACAGUAGGGGGGGGAACCUUACAGAUAAGAGUUACACAACAGAGGAUUGAGCAUCA"}, "B19": {"name": "chr18:35732044:35732045:+_ENSMUSG00000037236_ENSMUST00000166793|perfect_dup|motif|central (ssRNA)", "RNA": "GGGAGUUCUACAGUCCGACGAUCAAUUUGGGGCAAGUUCUCAGGAGUAAUCUUGUCCUCUGGAUAGCGACUCAGUUCAUCGGAGUCUCUAGCAGACAGACCAAAGCUGGCCAAAAUAUUACUGGCCUGGUCUGUAUCUCCACGCAACAGAGGAUUGAGCAUCA"}, "B20": {"name": "chrX:41029285:41029286:+_ENSG00000124486_ENST00000378308|hu_hu|motif|central (ssRNA)", "RNA": "GGGAGUUCUACAGUCCGACGAUCUGUAUGAGACCAUACCUCCAAGUCAUCAACCUGUCUGCCCUGGUUUGGAAAUCGAACGGCAAAAGAGAGGUGUUUACCGCGGAAUGCUCUCGACAUAGGGAGAAUUGUUCUUUCCUCAUGCAACAGAGGAUUGAGCAUCA"}, "B21": {"name": "chr8:95500983:95500984:-_ENSG00000164944_ENST00000437199|hu_hu|FALSE|FALSE (ssRNA)", "RNA": "GGGAGUUCUACAGUCCGACGAUCAAAAGGAUUUUUAUCGUGUAAAGGAGCGUACAUGACGACCUCUACCACUGCCUCCACUAACAAACUUUCCUCUUGAGCCUCCACUGCCGCUAUUUGCACUAGCCCAGGAAGGUCCAAGUCCAACAGAGGAUUGAGCAUCA"}, "B22": {"name": "chr4:144465060:144465061:+_ENSG00000153147_ENST00000283131|hu_mus|motif|central (ssRNA)", "RNA": "GGGAGUUCUACAGUCCGACGAUCAUAGUCUUCUCCUUCAAAGUUAUAAACACUGGACUCUGUGUCCAUCGUAAAGUUUCGGAGUGAACUUUCACCCAUCUUGGAGAGCUUUUCGUUCAUUUCUGCAGUCUUCUUUGCACCUCUCAACAGAGGAUUGAGCAUCA"}},
  "note": "Some of the results follow.",
  "data": [
    {"target": "T1, UNK ZnF1-3 (human, UniProt Q9C0B0 31-174)", "T1 sequence": "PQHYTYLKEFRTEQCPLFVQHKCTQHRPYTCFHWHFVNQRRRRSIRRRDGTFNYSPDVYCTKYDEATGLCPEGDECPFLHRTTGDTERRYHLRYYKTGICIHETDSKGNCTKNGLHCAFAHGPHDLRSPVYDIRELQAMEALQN", "test": "nsRBNS (natural sequence RNA bind-n-seq); RBNS binding buffer (assumed for nsRBNS): 25 mM Tris pH 7.5, 150 mM KCl, 3 mM MgCl2, 0.01% Triton X-100, 500 ug/ml BSA, 20 U/ml SUPERase-In, 4 C; UNK is unkempt and MSI1 is Musashi-1; names of the RNAs are library labels; protein concentration not given here; high values mean tight binding", "units": {"binding signal": "enrichment R"}, "values": [
      {"binder": "B1", "binding signal": 1.29},
      {"binder": "B2", "binding signal": 1.16},
      {"binder": "B3", "binding signal": 1.6},
      {"binder": "B4", "binding signal": 2.63},
      {"binder": "B5", "binding signal": 0.653},
      {"binder": "B6", "binding signal": 0.743},
      {"binder": "B7", "binding signal": 1.15},
      {"binder": "B8", "binding signal": 0.768},
      {"binder": "B9", "binding signal": 2.38},
      {"binder": "B10", "binding signal": 0.985},
      {"binder": "B11", "binding signal": 1.02},
      {"binder": "B12", "binding signal": 0.722},
      {"binder": "B13", "binding signal": 1.51},
      {"binder": "B14", "binding signal": 0.967},
      {"binder": "B15", "binding signal": 1.29},
      {"binder": "B16", "binding signal": 1.19},
      {"binder": "B17", "binding signal": 0.976},
      {"binder": "B18", "binding signal": 1.8},
      {"binder": "B19", "binding signal": 0.432},
      {"binder": "B20", "binding signal": 0.979},
      {"binder": "B21", "binding signal": 0.819},
      {"binder": "B22", "binding signal": 0.318}
    ]}
  ]
}
